Laboratory results as given in PubChem BioAssay AID894 (National Center for Advancing Translational Sciences (NCATS), 2007).
Several values for one entry are separate records, joined by “and”; a condition that tells them apart may be missing. Equal values may be shown once. The whole screen tested about 150,000 compounds, of which about 6,500 (4.3%) were called active. The shares of active, inactive and inconclusive entries below differ from those in the screen. The call rests on the fitted dose curve; in most records, active means well fitted inhibition curve with a large enough effect (not every such curve was filed as active); inconclusive means small, poorly fitted or top-dose-only effect, or another doubt; inactive means no such curve, though single readings can be large or run the other way. Potencies of inconclusive entries are left out as doubtful fits.

Biological target: 15-hydroxyprostaglandin dehydrogenase [NAD(+)] (Homo sapiens) (UniProt P15428)
UniProt P15428, sequence (P15428 whole entry, looked up): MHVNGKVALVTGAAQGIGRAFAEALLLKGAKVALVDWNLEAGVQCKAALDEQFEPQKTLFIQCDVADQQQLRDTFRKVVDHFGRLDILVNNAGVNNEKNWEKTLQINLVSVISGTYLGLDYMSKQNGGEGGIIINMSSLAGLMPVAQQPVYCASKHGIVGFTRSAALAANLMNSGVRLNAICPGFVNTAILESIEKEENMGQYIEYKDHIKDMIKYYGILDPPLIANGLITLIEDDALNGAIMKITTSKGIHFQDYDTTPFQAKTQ
Experiment: qHTS Assay for Inhibitors of HPGD (15-Hydroxyprostaglandin Dehydrogenase)
Details: purified HPGD, NADH fluorescence kinetic, PGE2 substrate; activity change, negative = inhibition: hits give low values
How it was run: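 NADH formation kinetics: reaction with 30 uM PGE2 and 1 mM NAD+ (final), 20 nM enzyme, Tris-HCl pH 8 with Tween 20, after 15 min compound preincubation at room temperature. Fluorescence change, last versus first of five reads.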
On the % scale 0 is the no-effect control and ±100 the full control effect; potency means the concentration at half of the fitted maximal effect; tags describe the fitted curve by direction and shape.

Compound | Potency | activity change, negative = inhibition
CN1C(=O)/C(=N\OC(=O)c2cccc3ccccc23)c2ccccc21 | inconclusive [inhibitor, partial curve] | –
Cc1c2cc(O)c(=O)cc-2oc2cc(O)c(O)cc12 | inconclusive [inhibitor, partial curve] | –
Cc1c(C(=O)NCC2CCCO2)sc2nc(-c3ccccc3)cn12 (configuration not stated) | active: 28.2 µM | –
C[C@@H](C(=O)NCC1CC1)[C@H]1C[C@]1(C)[C@H](NC(=O)OCc1ccccc1)c1ccccc1 | – | inactive: -6.33% and inactive: -8.93%
COC(=O)c1cc2c(ccn2-c2ccc(F)cc2)n1CC(C)C | inconclusive [inhibitor, partial curve] | –
O=C(O)c1ccc2cc[nH]c2c1 | inconclusive [inhibitor, partial curve] | –
CCn1c(SC(=O)NC2CCCCC2)nnc1-c1cccs1 | inconclusive [inhibitor, partial curve, poor fit] | –
CCn1c(-c2cc(-c3cccc(OC)c3)nc3ccccc23)n[nH]c1=S | inconclusive [inhibitor, partial curve] | –
COc1ccc(CC(=S)N2CCOCC2)cc1 | inconclusive [inhibitor, partial curve] | –
Cc1cc(C(F)F)nn1CC(=O)NCc1ccco1 | inconclusive [inhibitor, partial curve] | –
NC(=O)c1ccc(NC(=O)COC(=O)/C=C/c2cn(-c3ccccc3)nc2-c2cccnc2)cc1 | inconclusive [inhibitor, full curve] | –
COc1ccc(N2C(=O)C(Cl)=C(N3CCN(Cc4ccccc4)CC3)C2=O)cc1 | – | inactive: -10.4%
CC(OC(=O)c1cccs1)C(=O)NCc1ccco1 (configuration not stated) | – | inactive: -24.8%
COc1ccc(NC(=S)NNc2ccc([N+](=O)[O-])cc2S(=O)(=O)Nc2ccc(C)cc2C)cc1 | active: 14.1 µM | –
N#CC1=C(N)C(C#N)(C#N)C(c2cccnc2)C2CN(C(=O)OCc3ccccc3)CC=C12 (configuration not stated) | – | inactive: -17.6%
CC(C)(C)c1ccc(-c2n[nH]c(=S)n2C2CCCC2)cc1 | inconclusive [inhibitor, partial curve] | –
O=C(O)c1ccccc1N/N=C\c1ccnc2ccccc12 | active: 12.6 µM | –
O=C(Nc1cccc(O)c1)N1CCOCC1 | – | inactive: -8.7%
O=C(CSc1nc2ccccc2s1)c1sc2sc3ccccc3[n+]2c1O | inconclusive [inhibitor, partial curve] | –
C/C(=N\NC(=O)c1c(Cl)cnn1C)c1cccc(NC(=O)COc2ccccc2)c1 | inconclusive [inhibitor, partial curve] | –
CCn1c(SCC(=O)N2CCCc3ccccc32)nnc1-c1cccs1 | – | inactive: -1.54%
Cc1ccc(-n2c(C)cc(C=C3C(=O)CC(C)(C)CC3=O)c2C)cc1 | inconclusive [inhibitor, single point] | –
O=c1c(O)c(Br)ccc2c(Br)c(O)c(O)c(O)c12 | active: 15.8 µM | –
CC(=O)C1=C(O)C(=O)N(CCCO)C1c1ccccc1 (configuration not stated) | inconclusive [inhibitor, partial curve] | –

Compound | Potency | activity change, negative = inhibition
CSc1nnc2c(n1)OC=Nc1ccccc1-2 | – | inactive: -20.6%
O=C(Cn1c(=O)oc2cc(S(=O)(=O)N3CCCC3)ccc21)N1CCN(c2ccccn2)CC1 | inconclusive [inhibitor, single point] | –
CCc1ccc(C(C)NC(=O)/C=C/c2ccc(Br)cc2)cc1 (configuration not stated) | – | inactive: -7.54%
Cc1cc2c(c(=O)o1)C(C1C=CCCC1)C(C#N)=C(N)O2 (configuration not stated) | active: 28.2 µM | –
COCCn1c(=S)[nH]c2cc(OC)c(OC)cc2c1=O | – | inactive: -8.84%
CC1=CCC2C(=O)N(CCc3c[nH]c4ccccc34)C(=O)C2C1 (configuration not stated) | – | inactive: -15.8%
CC(C)C(=O)Nc1cccc(C(=O)Nc2nccs2)c1 | – | inactive: -9.54%
COc1cccc(-c2cc(C(=O)N/N=C/c3ccc(OC)c(COC(C)=O)c3)c3ccccc3n2)c1 | inconclusive [inhibitor, single point] | –
CC(C)[C@H](NC(=O)OC(C)(C)C)C(=O)N/N=C/c1cccc2nccnc12 | inconclusive [inhibitor, single point] | –
Cc1cc(OCC(F)(F)C(F)(F)C(F)(F)C(F)(F)C(F)(F)C(F)F)nc(N)n1 | – | inactive: -18.5%
CC1(C(=O)NCc2ccccn2)C=CCN1C(=O)c1ccccc1 (configuration not stated) | – | inactive: -9.08% and inactive: -9.77%
Cc1noc(C)c1C(=O)Nc1sc2c(c1C(N)=O)CCC2 | inconclusive [inhibitor, single point] | –
CCOc1ccc(CC(=O)OCN2C(=O)c3ccccc3C2=O)cc1 | inconclusive [inhibitor, single point] | –
COC(=O)C1=C(C)N2C(=O)CSC2=NC1c1ccc2c(c1)OCO2 (configuration not stated) | – | inactive: -12.6%
Cc1nn(C)c(C)c1NC(=O)c1ccnn1C | – | inactive: -7.23%
COc1ccc(-c2nc(CSCC(=O)NC3CCCc4ccccc43)c(C)o2)cc1OC (configuration not stated) | inconclusive [inhibitor, partial curve] | –
CCOC(=O)c1sc(NC(=O)CNC(=O)Cn2cnc3sc(C)c(C)c3c2=O)nc1C | – | inactive: -6.94%
COc1ccc(C(C[N+](=O)[O-])c2c(-c3ccccc3)cc3ccccn23)c(OC)c1 (configuration not stated) | active: 22.4 µM | –
Cc1c(C#N)c(N)nc2c3c(sc12)NC(=O)CC3c1ccc(F)cc1 (configuration not stated) | inconclusive [inhibitor, full curve, poor fit] | –
COc1ccc(OC)c(C(=O)c2coc3ccc(OC)cc23)c1 | inconclusive [inhibitor, single point] | –
Cc1nc2ccc(C(=O)N3CCSCC3)cc2s1 | active: 1.58 µM | –
NS(=O)(=O)c1cccc(NC(=O)COC(=O)C2(c3cccc(F)c3)CCCC2)c1 | – | inactive: -20.1%
CC1CCN(C(=O)c2ccc(CSc3ccc(Cl)cc3)cc2)CC1 | active: 0.891 µM | –
Cc1cc(C)cc(OCC(=O)Nc2ccc(F)cc2)c1 | inconclusive [inhibitor, partial curve] | –

Compound | Potency | activity change, negative = inhibition
C/C(CC1CC(C)(C)OC1=O)=N/Nc1nc(-c2ccccc2)cs1 (configuration not stated) | inconclusive [inhibitor, partial curve, poor fit] | –
S=c1[nH]nc(-c2ccccc2)n1/N=C/c1c[nH]c2ccccc12 | active: 2 µM | –
CCOC(=O)c1c(-c2ccc(C)o2)csc1NC(=O)CSc1nnnn1-c1ccccc1 | active: 11.2 µM | –
c1ccc2c(SCc3cn4cccnc4n3)ncnc2c1 | inconclusive [inhibitor, partial curve] | –
COC(=O)c1ccc(Sc2ccc(C)cc2)c(N)c1 | inconclusive [inhibitor, partial curve] | –
COc1ccccc1NC(=O)CCC(=O)c1ccc(-c2ccccc2)cc1 | active: 17.8 µM | –
O=C(CNc1ccc2ccccc2c1)N/N=C/C=C/c1cccc([N+](=O)[O-])c1 | – | inactive: -22.5%
Cc1c(C(=O)N2CCc3ccccc3C2)sc2nc(-c3ccccc3)cn12 | active: 7.08 µM | –
CN1CCc2c(sc3c2c(=O)n(-c2ccccc2)c2nnc(SCc4ccccc4)n32)C1 | inconclusive [inhibitor, single point] | –
CCOC(=O)CSc1ncnc2c1sc1nc(N3CCOCC3)c3c(c12)CCCC3 | inconclusive [inhibitor, partial curve] | –
Nc1c(C(=O)C2CC2)sc2nc(-c3cccs3)cc(C(F)(F)F)c12 | inconclusive [inhibitor, partial curve] | –
CCCc1nnc(NC(=O)Cn2c(=O)oc3cc(Br)ccc32)s1 | inconclusive [inhibitor, single point] | –
CCCC(=O)Nc1cccc(NC(=S)NC(=O)C(C)Oc2ccc(Cl)cc2Cl)c1 (configuration not stated) | inconclusive [inhibitor, partial curve] | –
O=C(NCc1cccnc1)/C(=C/c1ccc(-c2ccc(Cl)cc2)o1)S(=O)(=O)c1ccccc1 | inconclusive [inhibitor, partial curve] | –
Cc1c(-c2cccc(NC(=O)c3cccs3)c2)nc2ncccn12 | inconclusive [inhibitor, partial curve] | –
O=C(NCCc1ccccc1)c1ccc(-c2ccccc2C(F)(F)F)o1 | inconclusive [inhibitor, single point] | –
N/C(=N\OC(=O)c1ccccc1Cl)c1ccc(Cl)cc1 | active: 15.8 µM | –
Cc1ccc(OC(=O)COc2ccccc2C)c(-n2nc3ccccc3n2)c1 | inconclusive [inhibitor, partial curve, poor fit] | –
Clc1cccc(Nc2nnc(-c3ccccc3)c3ccccc23)c1 | inconclusive [inhibitor, partial curve] | –
Cc1ccc(S(=O)(=O)C2(C(=O)N3CCCCC3C)CC2)cc1 (configuration not stated) | – | inactive: -13.2%
N[C@@H](CCCCO)C(=O)O | – | inactive: -10.6%
CC1=C(C(=O)OC(C)C)C(c2cccnc2)C2=C(CCCC2=O)N1 (configuration not stated) | inconclusive [inhibitor, partial curve] | –
O=C(Nc1ccc(C(=O)N2CCOCC2)cc1)c1cccs1 | active: 14.1 µM | –
COc1ccc(-c2nc(SC)n(C)c(=O)c2C#N)cc1OC | inconclusive [inhibitor, partial curve] | –
